Drawing on article PMC12136788, this text covers binding signal for 14 molecules.

B1: chr5:21408736:21408737:-_ENSMUSG00000042453_ENSMUST00000161356|mus_hu|mus_mus_mus_hu_False|8_8 (ssRNA)
RNA: GGGAGUUCUACAGUCCGACGAUCGUUGACAGAGUUGUAGAUGGUGGCUUCAUGGAACUGGAAAGGGGAGCAGCCAAUGCUGUUAGAAGAGGAAGGAAGGCACUGGGUCUGUACGAGCUGCCAGGAAUCGGACCUUGCAUCCUUCAACAGAGGAUUGAGCAUCA
B2: chr7:20150648:20150649:-_ENSMUSG00000044709_ENSMUST00000117222|mus_mus|motif|central (ssRNA)
RNA: GGGAGUUCUACAGUCCGACGAUCCUUGAAAGAAUAGGAAAUUAUGUCACUACAUCGAAGCAAGGCCUCGGCCUGUACACCGGUGGGAGUCUGCAGUUGGGAAACGUAGAAGUUGGCCACAUCCAGGUCUGUGGCUCCAAACUGCAACAGAGGAUUGAGCAUCA
B3: chr2:136389457:136389458:+_ENSG00000048991_ENST00000409478|hu_hu|motif|central (ssRNA)
RNA: GGGAGUUCUACAGUCCGACGAUCCUGAUCAACAUUGUGGUCUAAUCCAAAGUAAGCGGCUACUCUGUGUAAUAGCAUCCGGUGGUAAGAUGUCAUUGGGGGGAAUUUUUUACGUGGAGACUCAUUAUUACCAAUGAAAUCUAACAACAGAGGAUUGAGCAUCA
B4: chr1:24083500:24083501:+_ENSG00000011007_ENST00000418390|hu_hu|motif|central (ssRNA)
RNA: GGGAGUUCUACAGUCCGACGAUCACUGCUGGUGCUUGGGCCAUCAUAGGCCGGCUCCUCAGGGCUGGGGUUAAAGCUGAUGCGGCUGGCGGAAGCAUGGCUGCUUCCCAUGGGGUACGGGGCUGGCUUGAUCUUGAUUUUCUCCAACAGAGGAUUGAGCAUCA
B5: chr11:29608197:29608198:+_ENSMUSG00000020458_ENSMUST00000102843|mus_mus|FALSE|FALSE (ssRNA)
RNA: GGGAGUUCUACAGUCCGACGAUCUGGAAUUUCAUUAGAUGCAGCAUCUUUUGUAAUAUGUAAAUUGGGCUGAAAAGACUCUAAAUAUGGCUUUCCUACCUCCUGAGGUGAAGCACUAAGUCUCUCCUUAUGUUUGUGUUGUGUCAACAGAGGAUUGAGCAUCA
B6: chr3:105540709:105540710:-_ENSMUSG00000068798_ENSMUST00000090678|mus_hu|FALSE|FALSE (ssRNA)
RNA: GGGAGUUCUACAGUCCGACGAUCUCUGACCAGGUCAUAAAAUAUCUCAUUAACAUUGAUCUUUGACUUUGCAGAAGAUUCUAAAAAGGCACAGUUACACCACUGUCUUGCUAAAUUCUGGCCCUGCUCUUUGCCAACUACUCGCAACAGAGGAUUGAGCAUCA
B7: chr2:151796264:151796265:-_ENSMUSG00000027459_ENSMUST00000062047|mus_mus|FALSE|FALSE (ssRNA)
RNA: GGGAGUUCUACAGUCCGACGAUCUGUUCGGCUGGCCUCAGAUGGGGACACAGGACUAUCACACAAGUUGAUGAGGCUGCUAAGGAUGUCGAGGUCCAGUUGGGGCCGGCGGCCAGAACAGGGCAGGACUCGGCGACUGGGUGUCAACAGAGGAUUGAGCAUCA
B8: chr6:109703465:109703466:-_ENSG00000135535_ENST00000310786|hu_mus|FALSE|FALSE (ssRNA)
RNA: GGGAGUUCUACAGUCCGACGAUCUUCUGGUAGCACGGUGGGCAUUUGCGUCGUCGGGACCACUUUGGUGGUCGUGGUCGGCACCUCGGUCACGUUGGGAGCCAGGGUGGUGAUGUUGGGCUGCGCGGCCGAGACGCAGAGCACCAACAGAGGAUUGAGCAUCA
B9: chr4:120733482:120733483:-_ENSMUSG00000043207_ENSMUST00000058754|mus_hu|FALSE|FALSE (ssRNA)
RNA: GGGAGUUCUACAGUCCGACGAUCGUUUUAAGAAAUGAAUUAUUAAAAUCAUUUUUAAAAUGACAUAUUAAAUGUAUUUAAAUCUGGGCUUUUCUGUACUUAAUUUUUCUUCUAAAAAAAAGUUUAAAAACAUCAAGAGCUGGACAACAGAGGAUUGAGCAUCA
B10: chr12:8716970:8716971:+_ENSMUSG00000020594_ENSMUST00000111122|mus_mus|motif|central (ssRNA)
RNA: GGGAGUUCUACAGUCCGACGAUCUGGAGAAGCCUUGCCUUUUUGAUCUCCUUUCUCAGGUCCAUCUGUUUCAGCAUCUCGGGUACCAAAAGUUCCCUUCCUAAAUCGAGAAUCCAAUUUAUCAGCAGGAGAGGAACUUAAUACCAACAGAGGAUUGAGCAUCA
B11: chr1:168153195:168153196:+_ENSG00000143155_ENST00000367833|hu_hu|motif|central (ssRNA)
RNA: GGGAGUUCUACAGUCCGACGAUCUAAAACGUUGUCUCCAAACAUCAUUUCAGGGAGAGAUGGCAUAUGUAAUUCAUCGGCGGAUUUCUCCACAUCCGCCGACUUCAUGAUGUGGGUCUUGGACGCCGUCAGCUUCCAGGGCCCCAACAGAGGAUUGAGCAUCA
B12: chr16:15112699:15112700:+_ENSG00000179889_ENST00000396410|hu_hu|FALSE|FALSE (ssRNA)
RNA: GGGAGUUCUACAGUCCGACGAUCCCACAGAGGCAGGGCACGGAGUUUGUCUGUGGGCUUAUUUGAUGUAAGACCAGCAACUAAAGUCAAGGCAGGGUCAUCGUGUUUAUACAGUGUCACCGCAGGAACAGCUGGCAAACCCAGCAACAGAGGAUUGAGCAUCA
B13: chr1:235599081:235599082:+_ENSG00000116957_ENST00000366601|hu_hu|motif|central (ssRNA)
RNA: GGGAGUUCUACAGUCCGACGAUCCAGGUGGGCUAUCAGAUACAGCUGAUUUUCAUCAAUUAAUUGAUUAGAGGAAAGAUCGGAUAACUUGACUGUCUGGAGAACAUCUGUUGGCCUUUCGGAAAUGAAAAUGUUGUUAGACUCCAACAGAGGAUUGAGCAUCA
B14: chr5:6374528:6374529:-_ENSG00000133398_ENST00000255764|hu_mus|FALSE|FALSE (ssRNA)
RNA: GGGAGUUCUACAGUCCGACGAUCAGCUAGAGCCCUCUCCAGGCAUUCUUUGGUGUAGAGCUGGGGAUUCCGACCUUGAUCAAUGUAUUCAAAAACUUCCAGAGGCACCGUGAUAUCGUGCAGCUGCUGUCUGCAUUUAUCUAUCAACAGAGGAUUGAGCAUCA

The list shows a part of the results.

This test deals with T1, UNK ZnF1-3 (human, UniProt Q9C0B0 31-174).
T1 sequence: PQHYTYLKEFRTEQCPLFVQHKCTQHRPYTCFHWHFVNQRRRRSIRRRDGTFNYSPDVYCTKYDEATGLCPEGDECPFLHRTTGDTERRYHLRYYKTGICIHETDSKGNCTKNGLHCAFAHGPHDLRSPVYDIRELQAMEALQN
As to the kind of experiment: nsRBNS (natural sequence RNA bind-n-seq); RBNS binding buffer (assumed for nsRBNS): 25 mM Tris pH 7.5, 150 mM KCl, 3 mM MgCl2, 0.01% Triton X-100, 500 ug/ml BSA, 20 U/ml SUPERase-In, 4 C; UNK is unkempt and MSI1 is Musashi-1; names of the RNAs are library labels; protein concentration not given here; high values mean tight binding.
In the case of B1, the binding signal is 1.4 enrichment R. For B2, the binding signal worked out at 0.844 enrichment R.

For the molecule B3, the binding signal turned out to be 1.15 enrichment R. The molecule B4 showed a binding signal of 0.797 enrichment R. Under B5 stands 1.73 enrichment R; under B6, 1.02 enrichment R.

Consider B7, for which the binding signal stood at 0.722 enrichment R. Under B8 stands 0.574 enrichment R; under B9, 1.75 enrichment R; under B10, 0.92 enrichment R.

For the molecule B11, the binding signal came to 0.536 enrichment R. Under B12 stands 1.09 enrichment R. Under B13 stands 1.44 enrichment R. Under B14 stands 1.61 enrichment R.
